Data published in article PMC4336329 (PLoS ONE, 2015).
Among all 310,000 compounds or so, about 14,000 (4.5%) showed an effect of 50% or more. The effect is printed as a negative number. This is one part of the list.

Target: human ether-à-go-go-related gene (hERG) potassium channel (human, UniProt Q12809)
Test: primary screen, population patch clamp on CHO cells stably expressing hERG
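Also: peak tail current of the secondary pulse compared with the same well before compound.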

Sequence of human ether-à-go-go-related gene (hERG) potassium channel (Q12809 whole entry, looked up): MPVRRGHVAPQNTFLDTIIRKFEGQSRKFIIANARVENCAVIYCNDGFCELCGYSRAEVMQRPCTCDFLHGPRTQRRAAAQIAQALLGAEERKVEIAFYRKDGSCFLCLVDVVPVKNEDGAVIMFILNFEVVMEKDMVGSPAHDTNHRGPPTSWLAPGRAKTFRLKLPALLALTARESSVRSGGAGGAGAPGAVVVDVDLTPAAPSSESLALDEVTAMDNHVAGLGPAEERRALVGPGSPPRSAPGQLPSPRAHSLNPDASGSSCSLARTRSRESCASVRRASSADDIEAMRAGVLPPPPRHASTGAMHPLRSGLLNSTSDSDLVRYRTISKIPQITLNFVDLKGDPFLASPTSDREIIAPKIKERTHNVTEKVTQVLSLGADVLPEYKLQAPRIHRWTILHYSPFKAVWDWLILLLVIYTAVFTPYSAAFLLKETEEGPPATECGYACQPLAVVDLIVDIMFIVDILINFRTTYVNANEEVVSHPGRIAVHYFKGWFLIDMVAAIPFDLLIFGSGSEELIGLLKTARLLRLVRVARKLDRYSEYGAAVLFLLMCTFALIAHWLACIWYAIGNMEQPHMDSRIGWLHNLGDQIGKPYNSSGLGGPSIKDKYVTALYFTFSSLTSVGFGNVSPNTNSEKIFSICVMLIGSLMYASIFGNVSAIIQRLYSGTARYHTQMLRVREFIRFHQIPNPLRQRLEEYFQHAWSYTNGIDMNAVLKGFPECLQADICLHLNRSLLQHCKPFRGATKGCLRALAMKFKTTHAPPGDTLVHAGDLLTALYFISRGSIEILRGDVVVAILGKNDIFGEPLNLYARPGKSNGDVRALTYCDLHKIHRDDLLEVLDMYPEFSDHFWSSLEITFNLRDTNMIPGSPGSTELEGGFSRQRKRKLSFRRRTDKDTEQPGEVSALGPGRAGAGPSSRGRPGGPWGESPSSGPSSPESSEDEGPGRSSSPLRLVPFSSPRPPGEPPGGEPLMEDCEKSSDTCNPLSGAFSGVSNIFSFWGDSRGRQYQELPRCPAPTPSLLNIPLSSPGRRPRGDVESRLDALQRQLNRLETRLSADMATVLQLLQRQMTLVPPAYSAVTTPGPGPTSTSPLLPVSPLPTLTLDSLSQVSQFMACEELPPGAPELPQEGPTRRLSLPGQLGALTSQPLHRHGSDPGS

First: O=C(CSc1nc2ccccc2o1)c1ccccc1
Second: COc1ccc(C(=O)c2oc3ccccc3c2N)cc1
The “hERG current change (%, negative = inhibition) at 10uM” value of the first is lower: 2.21% for the first, 3.86% for the second.

Going from `CNC(=S)N(Cc1cc2cc(C)ccc2n2nnnc12)CC(C)(C)CN(C)C` to `CCOc1nc(SCCOc2ccc(C)cc2)nc(N(C)C)n1`, the “hERG current change (%, negative = inhibition) at 10uM” value falls from 24.1% to -9.27%.

Compared with `Cc1ccc(NC(=O)CSCC(=O)Nc2ccccc2N2CCCCC2)cc1`, `Cc1ccc(NC2=CC(=O)CC(c3ccccc3)C2)cc1` (centres unmarked) is higher in “hERG current change (%, negative = inhibition) at 10uM” value: -11.3% for the first, 13.3% for the second.

Compared with `O=C(NCCCO)/C(=C\c1ccco1)NC(=O)c1ccc(Br)o1`, `COc1ccc(N(C(=O)CNC(=O)c2ccco2)C(C(=O)NC2CCCC2)c2ccc(C)o2)cc1` (centres unmarked) is lower in “hERG current change (%, negative = inhibition) at 10uM” value: -1.83% for the first, -19.7% for the second.

First: CNC(=O)N(O)C1N(NC(=O)Nc2ccccc2)C(=S)SC1(C)C (centres unmarked)
Second: CSc1ccccc1C(=O)Nc1cccc(C(C)O)c1 (centres unmarked)
The “hERG current change (%, negative = inhibition) at 10uM” value of the first is higher: 5.86% for the first, -2.74% for the second.

Compared with `O=C(NC1CCSC1=O)C1CCCCC1` (centres unmarked), `CS(=O)(=O)N(C(=O)NC(=O)NC1CCS(=O)(=O)C1)C1CCCCC1` (centres unmarked) is lower in “hERG current change (%, negative = inhibition) at 10uM” value: 5.49% for the first, 4.13% for the second.

Going from `Cl.N=c1sccn1CC(=O)Nc1ccc(S(=O)(=O)N2CCOCC2)cc1` to `O=C(CNc1cccc(S(=O)(=O)N2CCOCC2)c1)Nc1ccccc1F`, the “hERG current change (%, negative = inhibition) at 10uM” value falls from -5.32% to -6.55%.

Compared with `O=C(COc1cc(Cl)c(Cl)cc1Cl)Nc1ccncc1`, `Cc1cc(C)c(OCC(=O)Nc2ccccn2)c([N+](=O)[O-])c1` is higher in “hERG current change (%, negative = inhibition) at 10uM” value: -10.7% for the first, -2.43% for the second.

Compared with `CC1(C)CC(C(=O)NCCC(c2ccccc2)c2ccco2)CCO1` (centres unmarked), `CC(NC(=O)Cc1ccc(F)cc1)c1ccccc1` (centres unmarked) is lower in “hERG current change (%, negative = inhibition) at 10uM” value: -9.31% for the first, -15.6% for the second.

First: c1ccc2sc(Sc3ncnc4sccc34)nc2c1
Second: Cc1ccsc1C1Nc2ccc3ncccc3c2C2=C1C(=O)CCC2 (centres unmarked)
The “hERG current change (%, negative = inhibition) at 10uM” value of the first is higher: 15% for the first, -8.33% for the second.

Compared with `N#CCCn1cc(C(=O)Nc2ccc(F)cc2)c(-c2ccccc2)n1`, `COc1cccc(NC(=O)c2cc3ccccc3cc2OC)c1` is higher in “hERG current change (%, negative = inhibition) at 10uM” value: -15.2% for the first, 8.02% for the second.

Going from `O=C(NCCc1ccccn1)C(F)(F)C(F)(F)C(F)(F)C(F)(F)C(F)(F)C(F)(F)C(F)(F)C(F)F` to `O=C(O)CC1(CC(=O)Nc2cc(C(F)(F)F)cc(C(F)(F)F)c2)CCCCC1`, the “hERG current change (%, negative = inhibition) at 10uM” value rises from 15.9% to 18.6%.

Compared with `Cn1ccnc1SCC(=O)Nc1ccc2c(c1)OCO2`, `O=C(O)c1ccc2c(c1)C(=O)N(Cc1ccc3c(c1)OCO3)C2=O` is lower in “hERG current change (%, negative = inhibition) at 10uM” value: 0.703% for the first, -5.32% for the second.

Compared with `O=C(c1ccco1)N1CCN=C1SCc1ccc(F)cc1`, `COc1ccc(SCC2CN(C)CCC2c2ccc(F)cc2)cc1.Cl` (centres unmarked) is lower in “hERG current change (%, negative = inhibition) at 10uM” value: -1.06% for the first, -11.8% for the second.

Going from `CN(C)c1cccc2c1c(NS(=O)(=O)c1cn(C)cn1)nn2C` to `CC(=O)Nc1ccc(C)c(NS(=O)(=O)c2cccc(C(F)(F)F)c2)c1`, the “hERG current change (%, negative = inhibition) at 10uM” value falls from 17.3% to 3.63%.

Going from `Cc1cc(NC(=O)c2ccc(N3C(=O)CCC3=O)cc2)no1` to `Cc1cnc(C(=O)NNC(=O)c2ccc(Br)cc2)cn1`, the “hERG current change (%, negative = inhibition) at 10uM” value falls from 25.5% to -30.2%.

Going from `Cc1cc(C)n(CCCN2CCC(C(=O)Nc3cccc(-c4cccc(F)c4)c3)CC2)n1` to `CN(C(=O)c1cccc(NC(=O)c2ccccc2)c1)C1CCCCC1`, the “hERG current change (%, negative = inhibition) at 10uM” value rises from -80.4% to -9.26%.

First: O=C(NCCc1c[nH]c2ccccc12)C(=O)NCC1OCCN1S(=O)(=O)c1cc(F)ccc1F (centres unmarked)
Second: Cc1ccc(S(=O)(=O)N2CCOCC2)cc1C(=O)OCC(=O)NCc1ccc2c(c1)OCO2
The “hERG current change (%, negative = inhibition) at 10uM” value of the first is higher: -15.6% for the first, -44.1% for the second.

First: Cc1ccc(C(=O)NC(=S)N(C)C2CCCCC2)cc1
Second: O=C(NC1CCCC1)C(c1ccccc1)N(C(=O)c1csnn1)C1CCCC1 (centres unmarked)
The “hERG current change (%, negative = inhibition) at 10uM” value of the first is higher: 15.1% for the first, -10.8% for the second.

First: O=C(COC(=O)c1ccc(CO)cc1)c1ccc(S(=O)(=O)N2CCCCC2)cc1
Second: COc1ccccc1C(CNc1ccc(S(=O)(=O)N2CCCC2)cc1[N+](=O)[O-])N(C)C (centres unmarked)
The “hERG current change (%, negative = inhibition) at 10uM” value of the first is higher: 13.1% for the first, -20.5% for the second.

Going from `Cc1cccc(NC(=O)Cc2cccs2)n1` to `Cn1c(CC(=O)Nc2ccccc2Cl)nnc1SCC(=O)Nc1nncs1`, the “hERG current change (%, negative = inhibition) at 10uM” value rises from 6.95% to 22.7%.

Compared with `COc1cc(C(=O)NCC2CCCO2)ccc1OCc1ccc(Cl)cc1Cl` (centres unmarked), `Cc1cc(C(=O)CSc2nnc(-c3ccc(Cl)cc3)n2CC2CCCO2)c(C)n1C` (centres unmarked) is lower in “hERG current change (%, negative = inhibition) at 10uM” value: -16.9% for the first, -20% for the second.

Going from `Cc1cccc(C)c1N(CC(=O)Nc1cc(Cl)ccc1Oc1ccccc1)S(C)(=O)=O` to `COc1ccc(N(CC(=O)Nc2cccc(N(C)S(C)(=O)=O)c2)S(=O)(=O)c2ccc(C)cc2)cc1`, the “hERG current change (%, negative = inhibition) at 10uM” value rises from 2.06% to 15.8%.

Going from `CCOC(=O)Cn1nc(C)n(-c2ccc(Br)cc2)c1=O` to `CN(CC(=O)Nc1cccnc1)S(=O)(=O)c1ccc(Br)cc1`, the “hERG current change (%, negative = inhibition) at 10uM” value falls from -4.4% to -21.3%.

Going from `CC(C)c1ccc(NC(=S)NNC(=O)c2cccnc2)cc1` to `CCOC(=O)c1ccc(N2CCN(C(C)=O)CC2)c(NC(=O)c2cccnc2)c1`, the “hERG current change (%, negative = inhibition) at 10uM” value falls from 16.8% to -9.24%.

Going from `CS(=O)(=O)N(CC(O)Cn1c2ccccc2c2ccccc21)c1cccc2ccccc12` (centres unmarked) to `CCc1ccc(NC(=O)Cn2c(=O)n(CCCC(=O)NCc3ccco3)c(=O)c3ccccc32)cc1`, the “hERG current change (%, negative = inhibition) at 10uM” value rises from 0.652% to 1.22%.

Going from `CCN1CCN(c2ccc([N+](=O)[O-])cc2S(=O)(=O)N2CCOCC2)CC1` to `Cc1cc(NC(=O)C(=O)NCCN2CCN(S(C)(=O)=O)CC2)ccc1Br`, the “hERG current change (%, negative = inhibition) at 10uM” value rises from -43.9% to -21.3%.

First: Cn1c(CCN2CCCCC2)nc2cc(NC(=O)NC3CCCCC3)ccc21
Second: N=c1c2c3c(sc2nc2n1CCCCC2)CCCCC3
The “hERG current change (%, negative = inhibition) at 10uM” value of the first is higher: 0.766% for the first, -53% for the second.

First: COC(=O)[C@]1(S(=O)(=O)c2ccccc2)C[C@@H]2ON=C(c3ccc(OC)cc3)[C@@H]2C1
Second: COc1ccccc1NS(=O)(=O)c1cccc(C(=O)NCc2ccco2)c1
The “hERG current change (%, negative = inhibition) at 10uM” value of the first is higher: 10.8% for the first, -18.7% for the second.

Going from `COc1ccc(N2C(=O)C3C4C=CC(c5ccccc5)(C3C2=O)C2C(=O)N(c3ccc(OC)cc3)C(=O)C42)cc1` (centres unmarked) to `COc1ccc(-c2c(=O)n(OCc3ccccc3[N+](=O)[O-])c3ccccc3[n+]2[O-])c(OC)c1`, the “hERG current change (%, negative = inhibition) at 10uM” value falls from 5.29% to -5.32%.

Going from `CCN(CC)CCc1nc(-c2ccccc2)no1.O=C(O)CC(O)(CC(=O)O)C(=O)O` to `CN1CCN(C2=Nc3ccccc3Oc3ccc(Cl)cc32)CC1.O=C(O)CCC(=O)O`, the “hERG current change (%, negative = inhibition) at 10uM” value rises from -10.6% to -6.25%.

Compared with `CC1N=C(c2ccccc2)c2cc(Br)ccc2NC1=O` (centres unmarked), `CC1Cc2c([nH]c3ccccc23)C2c3ccccc3CN12` (centres unmarked) is higher in “hERG current change (%, negative = inhibition) at 10uM” value: -44% for the first, -7.69% for the second.

First: COC(=O)CC1COc2ccccc2N1C(=O)c1cccc(C(F)(F)F)c1 (centres unmarked)
Second: COc1ccc(CNCC(O)(c2ccccc2)c2ccc(F)cc2)cc1OC (centres unmarked)
The “hERG current change (%, negative = inhibition) at 10uM” value of the first is higher: 17.8% for the first, -61.2% for the second.

First: Cc1ccc(-n2c(C)cc(C(=O)COC(=O)c3ccc[nH]c3=O)c2C)cc1C
Second: COc1ccccc1-c1nnc(SCC(=O)Nc2oc(C)c3c(C)n[nH]c(=O)c23)n1C
The “hERG current change (%, negative = inhibition) at 10uM” value of the first is lower: -6.9% for the first, 24.7% for the second.

Going from `CCCCCn1c(Sc2ncccn2)nc2c1c(=O)[nH]c(=O)n2C` to `Cn1c(=O)n(C)c2cc(S(=O)(=O)NCCOCCO)ccc21`, the “hERG current change (%, negative = inhibition) at 10uM” value rises from -10.5% to 8.53%.

Compared with `CC(=O)N1N=C(c2ccncc2)OC12CCCCC2`, `CN1CCN(S(=O)(=O)c2ccc(NC(=O)Nc3cccc(Cl)c3)cc2)CC1` is lower in “hERG current change (%, negative = inhibition) at 10uM” value: 4.17% for the first, -18.7% for the second.

Compared with `Cc1ccc(S(=O)(=O)c2c[nH]c3cc4c(cc3c2=O)OCO4)cc1`, `COc1ccccc1N1CCN(Cc2ccc3c(c2)OCO3)CC1` is lower in “hERG current change (%, negative = inhibition) at 10uM” value: 8.21% for the first, -20.1% for the second.

Going from `CCOc1cccc(C(=O)Nc2ccc3oc(Cc4ccc(Cl)cc4)nc3c2)c1` to `COc1cccc(CCNC(=O)c2ccc(C#N)cc2)c1`, the “hERG current change (%, negative = inhibition) at 10uM” value falls from 6.61% to -18.8%.

Going from `CCS(=O)(=O)CCSc1nc2c(cc1C#N)CCCC2` to `Cc1cc2cc3c(cc2nc1SCC(=O)O)OCCO3`, the “hERG current change (%, negative = inhibition) at 10uM” value rises from -28% to 9.04%.

Going from `C#CCNC(=O)C1=C[C@@H](C2CC2)C[C@@H](OCCCCO)O1` to `CCOc1ccc2nc(N(CCCN(C)C)C(=O)c3ccc(S(=O)(=O)N4CCc5ccccc5C4)cc3)sc2c1.Cl`, the “hERG current change (%, negative = inhibition) at 10uM” value rises from -14% to -1.08%.

First: Oc1ccc(N2CCN(C(c3cccnc3)c3nnnn3Cc3ccccc3)CC2)cc1 (centres unmarked)
Second: O=C(O)c1ccc(OCC(O)Cn2cnc3ccccc32)cc1 (centres unmarked)
The “hERG current change (%, negative = inhibition) at 10uM” value of the first is lower: -21.2% for the first, 9.74% for the second.

First: CCN(CC(=O)Nc1ccc(NC(C)=O)cc1)C(=O)/C=C/c1cn(-c2ccccc2)nc1-c1cccs1
Second: COC/C=C/C1=CC2=CC(=O)C(C)(OC(=O)c3cnc4ccccc4n3)C(=O)C2=CN1CCOC (centres unmarked)
The “hERG current change (%, negative = inhibition) at 10uM” value of the first is lower: 0.487% for the first, 13.3% for the second.

Going from `O=C1CC(=O)CC(c2ccccc2Cl)C1` to `Cc1ccc2nc(N3CCN(C)CC3)c(C=O)c(=O)n2c1`, the “hERG current change (%, negative = inhibition) at 10uM” value falls from 7.85% to 5.3%.
